PubChem BioAssay AID720708 (National Center for Advancing Translational Sciences (NCATS), 2013)
About 660 (0.18%) of roughly 360,000 compounds were called active. The inconclusive results got no clear call from the source; some entries with a clear call stand among them for comparison. Calls come from the whole dose curve; as a rule, active = well fitted inhibition curve with a large enough effect; inconclusive = small, poorly fitted or top-dose-only effect; inactive = no such curve, though single readings can be large or run the other way. Potencies of inconclusive entries are left out as doubtful fits.

target: Rap guanine nucleotide exchange factor 4 (Homo sapiens) (UniProt Q8WZA2); test: qHTS for Antagonist of cAMP-regulated guanine nucleotide exchange factor 2 (EPAC2): primary screen; conditions: EPAC2 GEF exchange of Rap1B-BODIPY-GDP, fluorescence; activity, negative = inhibition: at 114 µM (top of the series) unless noted; note: nearly all actives have a fitted effect of over 45% in size
Sequence of UniProt Q8WZA2 (Q8WZA2 whole entry, looked up): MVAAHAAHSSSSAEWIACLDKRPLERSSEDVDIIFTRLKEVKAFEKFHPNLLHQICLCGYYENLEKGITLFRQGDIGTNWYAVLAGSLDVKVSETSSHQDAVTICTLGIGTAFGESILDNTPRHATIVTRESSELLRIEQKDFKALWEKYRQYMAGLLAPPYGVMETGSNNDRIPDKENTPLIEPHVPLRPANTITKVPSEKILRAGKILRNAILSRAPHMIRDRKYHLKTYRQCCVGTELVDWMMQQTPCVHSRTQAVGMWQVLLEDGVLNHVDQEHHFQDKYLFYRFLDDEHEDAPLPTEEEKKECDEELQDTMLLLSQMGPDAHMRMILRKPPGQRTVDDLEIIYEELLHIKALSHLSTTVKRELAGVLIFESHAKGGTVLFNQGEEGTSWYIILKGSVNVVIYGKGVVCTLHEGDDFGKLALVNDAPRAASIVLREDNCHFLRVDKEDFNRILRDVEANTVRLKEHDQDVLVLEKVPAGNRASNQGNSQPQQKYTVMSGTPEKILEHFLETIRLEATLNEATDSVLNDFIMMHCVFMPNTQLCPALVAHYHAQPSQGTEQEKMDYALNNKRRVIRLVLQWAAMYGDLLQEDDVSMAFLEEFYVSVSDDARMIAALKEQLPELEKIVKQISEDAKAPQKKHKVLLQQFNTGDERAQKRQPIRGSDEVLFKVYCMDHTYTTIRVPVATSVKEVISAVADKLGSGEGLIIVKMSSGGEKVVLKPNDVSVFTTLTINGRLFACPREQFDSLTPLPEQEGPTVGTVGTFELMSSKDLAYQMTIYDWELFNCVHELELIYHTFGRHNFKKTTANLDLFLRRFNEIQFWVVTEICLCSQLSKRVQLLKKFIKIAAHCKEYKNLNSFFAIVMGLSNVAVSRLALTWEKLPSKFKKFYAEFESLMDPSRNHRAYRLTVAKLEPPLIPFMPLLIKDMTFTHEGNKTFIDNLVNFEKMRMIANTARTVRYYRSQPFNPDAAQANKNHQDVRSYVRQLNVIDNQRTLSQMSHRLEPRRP
% is set by controls: 0 for no effect and ±100 for the full control effect; potency is the fitted concentration of half-maximal effect; tags give direction and shape of the fitted curve.

Compound	activity, negative = inhibition	Potency
COc1ccc(CN(C)C(=O)c2[nH]c(C)c(C(C)=O)c2C)cc1F	inactive: 0.358%	–
O=C(N/N=C\c1cc([N+](=O)[O-])ccc1N1CCCC1)c1ccccn1	–	inconclusive [inhibitor, single point]
Cc1[nH]n(-c2ccccc2)c(=O)c1N=Nc1cccc(C(=O)O)c1	–	inconclusive [inhibitor, partial curve]
COc1ccccc1/C=N/Nc1cc(C)nc2ccc(C)cc12	–	inconclusive [inhibitor, partial curve]
COc1ccc(N(CC(=O)N/N=C(\C)c2ccc(OC)c(OC)c2)S(=O)(=O)c2ccccc2)cc1	inactive: -1.02%	–
CCCCc1ccc(N=N/C(C(=O)Nc2ccc(NC(C)=O)cc2OC)=C(/C)O)cc1	–	inconclusive [inhibitor, partial curve]
CCOC(=O)C1(Cc2ccccc2C)CCCN(C(=O)c2ccc(CSC)o2)C1 (stereo unspecified)	–	inconclusive [inhibitor, partial curve]
C/C(=C\C(=O)c1ccc(F)cc1)NCc1ccc2c(c1)OCO2	inactive: -7.54%	–
COc1cc2cnc(-c3ccccc3)c(-c3ccc(C(F)(F)F)cc3)c2cc1OC	–	inconclusive [inhibitor, full curve, poor fit]
S=C1SCCCN1Cc1ccc(Cl)cc1	–	inconclusive [inhibitor, partial curve]
O=C(Nc1ccc(Cl)cc1)N[C@@H]1CC[C@H](CCNS(=O)(=O)c2ccccc2F)O[C@@H]1CO	–	inconclusive [inhibitor, single point]
COc1ccc(C(CNC(=O)c2ccc(S(=O)(=O)N(C)C)cc2)N2CCCCC2)cc1 (stereo unspecified)	–	inconclusive [inhibitor, full curve, poor fit]
O=C(c1ccc(-c2ccccc2)cc1)N1CCN(c2ccc3c(c2)C2CC3CCN2C(=O)OCc2ccccc2)CC1 (stereo unspecified)	–	inconclusive [inhibitor, full curve, poor fit]
O=C(Nc1cccc(C(=O)O)c1)/C(=C\c1ccc2c(c1)OCO2)NC(=O)c1ccc(Br)cc1	–	inconclusive [inhibitor, partial curve]
O=C(NCCCN1CCCC1)c1ccc(CS(=O)(=O)c2ccc(Cl)cc2)o1	inactive: -0.433%	–
CCc1ccc(C(=O)COC(=O)c2cccnc2Cl)cc1	–	inconclusive [inhibitor, single point]
CC(C)C[C@H](NC(=O)C1(c2ccccc2)CCN(C(=O)OC(C)(C)C)CC1)C(=O)N1CCC[C@H]1C(=O)O	–	active: 79.4 µM
CCN1C/C(=C/c2cccc([N+](=O)[O-])c2)C(=O)/C(=C/c2cccc([N+](=O)[O-])c2)C1	inactive: -2.75%	–
CN(C)c1ccc(NC(=O)c2ccc(N3CCOCC3)nc2)cc1	inactive: 16.4%	–
COc1ccc(C(=O)N2N=C(c3cccs3)CC2c2ccccc2O)cc1 (stereo unspecified)	–	inconclusive [inhibitor, full curve]
Cc1ccc(C)c(/C=C2\CCn3c2nc2cc(C(=O)O)ccc2c3=O)c1	–	inconclusive [inhibitor, partial curve]
COc1ccc2c(=O)c(-c3ccc(C)cc3)c(-c3ccccc3)oc2c1	–	inconclusive [inhibitor, full curve]

Compound	activity, negative = inhibition	Potency
O=C(O)c1cc(O)c2c(c1)[C@@H]([C@H]1c3cc(C(=O)O)cc(O)c3C(=O)c3c(O[C@@H]4O[C@H](CO)[C@@H](O)[C@H](O)[C@H]4O)cccc31)c1cccc(OC3O[C@H](CO)[C@@H](O)[C@H](O)[C@H]3O)c1C2=O (stereo partly specified)	–	inconclusive [inhibitor, single point]
Cc1ccc(-c2nc(S(=O)(=O)c3ccc(C)cc3)c(N3CCOCC3)o2)cc1	–	inconclusive [inhibitor, partial curve]
Cn1c(-c2ccccc2)c(C(=O)CCl)c2ccccc21	–	inconclusive [inhibitor, partial curve, poor fit]
Cc1[nH]c(=O)nc(NN=Cc2ccc(Cl)cc2)c1C(=O)Nc1ccc(Cl)cc1	inactive: 20.4%	–
O=C1N[C@@H](Cc2ccccc2)C(=O)N2[C@@H]3N(S(=O)(=O)c4ccccc4)c4ccccc4[C@]3(Br)C[C@@H]12	–	inconclusive [inhibitor, partial curve]
CC(=O)N(CCC(c1ccco1)C(C)C)Cc1ccc(Cl)cc1 (stereo unspecified)	–	inconclusive [inhibitor, partial curve]
Cc1cc(C)n(C(=O)C(C(=O)c2ccccc2)C(C)C)n1 (stereo unspecified)	–	inconclusive [inhibitor, partial curve]
O=C(NC1(O)C(=O)c2ccccc2C1=O)c1ccccc1	–	inconclusive [inhibitor, partial curve]
O=C(NCc1cccnc1)c1cc(C2CCCCN2S(=O)(=O)c2cccc3cccnc23)on1 (stereo unspecified)	–	inconclusive [inhibitor, partial curve, poor fit]
O=C(O)c1cnn(-c2nc(-c3ccc(Cl)cc3)cs2)c1C(F)(F)F	–	inconclusive [inhibitor, partial curve]
CC(C)C[C@@H](COCc1cccc(Cl)c1)N1CCN(C(=O)c2cccc(C(F)(F)F)c2)CCC1=O	–	inconclusive [inhibitor, partial curve]
Oc1ccc(-c2cccc(-c3ccc(O)cc3)n2)cc1	–	inconclusive [inhibitor, single point]
COc1cccc2cc(/C(=N/O)c3ccccc3)oc12	–	active: 50.1 µM
COc1ccc(CNC(=O)CN(C(=O)CCC(=O)Nc2nccs2)c2ccc(C)cc2)cc1	–	inconclusive [inhibitor, single point]
CC(CCc1ccc(O)cc1)NC(c1ccccc1)c1ccc(Cl)cc1 (stereo unspecified)	–	inconclusive [inhibitor, partial curve]
COc1ccc(-c2nc(SCc3ccc(C#N)cc3)[nH]c(=O)c2C#N)cc1	–	inconclusive [inhibitor, partial curve]
CCOc1cccc(/C=N/NC(=S)Nc2cc(S(=O)(=O)N3CCOCC3)ccc2N2CCOCC2)c1O	inactive: -0.571%	–
COc1ccc(N(C)C(=O)c2oc(=O)c3ccccc3c2-c2ccccc2)c(OC)c1	–	inconclusive [inhibitor, partial curve]
COc1cccc(OCc2cc(C3Nc4ccccc4C(=O)N3Cc3ccco3)ccc2OC)c1 (stereo unspecified)	inactive: -1.17%	–
CC(=O)c1ccc(N2CCN(C(=O)/C=C/c3ccc4ccccc4n3)CC2)cc1	–	inconclusive [inhibitor, partial curve]
CC1=Nc2ccccc2/C1=C\c1nc(-c2ccc(C(F)(F)F)cc2)oc1O	inactive: 2.77%	–
CCOC(=O)c1c(NC(=O)CSc2nc3cc(Cl)ccc3c(=O)n2Cc2ccco2)sc(C(=O)N(C)C)c1C	–	inconclusive [inhibitor, single point]

Compound	activity, negative = inhibition	Potency
O=C(c1ccc(F)cc1)c1ccc(N2CCCC2)cc1	inactive: 5.53%	–
CSCc1cc(N(C)c2ccccc2)nc(-c2ccccc2)n1	–	inconclusive [inhibitor, full curve]
Cc1cc(C)n(C(=O)/C(C#N)=N/Nc2cc(Cl)cc(Cl)c2)n1	–	inconclusive [inhibitor, partial curve]
CC(=O)C(=Nc1ccccc1Cl)NNc1ccc(Cl)cc1	inactive: -3.29%	–
COCCN(C/C=C/c1ccccc1)C/C=C/c1ccccc1	inactive: -0.883%	–
CCOC(=O)c1c(C)oc2ccc(OS(C)(=O)=O)cc12	–	inconclusive [inhibitor, partial curve]
Cc1ccc(C)c(-n2nnnc2Sc2nnnn2-c2ccccc2)c1	inactive: -5.8%	–
CSc1ccc(Cl)c(C(=O)N2CCOc3ccccc32)c1	–	inconclusive [inhibitor, full curve]
CC1Oc2ccc(C#N)cc2N(Cc2ccccc2OC(F)(F)F)C1=O (stereo unspecified)	–	inconclusive [inhibitor, single point]
Cc1ccc(-n2sc3cc(F)ccc3c2=O)c(C)c1	inactive: -25.9%	–
CC1(Cc2ccccc2Cl)C(=O)Nc2ccc(OC(F)(F)F)cc21 (stereo unspecified)	–	inconclusive [inhibitor, partial curve]
COc1ccc(-c2n[nH]c(=S)n2C2CCCCC2)cc1	inactive: 0.315%	–
Cc1cc(NC(=O)CN2CCCCC2)no1	inactive: 2.66%	–
CCCCN(C=O)c1c(CC)nc2ccc(C(=O)N(C)Cc3ccco3)cn12	inactive: 5.83%	–
O=C(Nc1ccccc1)C(c1ccccc1)C1CCCC1 (stereo unspecified)	–	inconclusive [inhibitor, partial curve]
O=C(O)c1ccc(N/N=C/c2ccncc2)cc1	–	inconclusive [inhibitor, partial curve]
CC(C)N1C(=S)SC2CS(=O)(=O)C=C21 (stereo unspecified)	–	inconclusive [inhibitor, partial curve]
CC(=O)NC(c1cc(Cl)c2ccccc2c1O)C(C)C (stereo unspecified)	–	inconclusive [inhibitor, full curve]
CCOC(=O)C(=C1Nc2ccccc2N1)n1c(-c2cccnc2)nc2ccccc21	inactive: -1.13%	–
CCc1ccc(N(C(=O)c2ccco2)C(C(=O)NC2CCCC2)c2ccco2)cc1 (stereo unspecified)	–	inconclusive [inhibitor, single point]
CC1(Cc2ccc(C(F)(F)F)o2)C(=O)Nc2cc(-c3ccc(F)cc3F)ccc21 (stereo unspecified)	–	inconclusive [inhibitor, partial curve]
O=S(=O)(Nc1ccc(C(F)(F)F)cc1)c1cccs1	–	inconclusive [inhibitor, partial curve]
